Values joined by “and” are separate entries in the source; they are usually repeats but may differ in a detail not shown here. Equal entries are not always repeated. About 5,700 (2.6%) of roughly 220,000 compounds were called active. Inconclusive results, whose numbers are uncertain, are shown with a selection of clear calls. Calls come from the whole dose curve; as a rule, active = well fitted inhibition curve with a large enough effect; inconclusive = small, poorly fitted or top-dose-only effect; inactive = no such curve, though single readings can be large or run the other way. Potencies beside an inconclusive call are fits to weak or partial responses and may not hold up.
These compounds were tested against Lysine-specific demethylase 5B (Homo sapiens) (UniProt Q9UGL1) (assay: Primary screen for KDM5B Histone Demethylases FDH-coupled qHTS). Conditions: FDH-coupled NADH fluorescence (FDH is formaldehyde dehydrogenase); activity change, negative = inhibition: at 57.7 µM (top of the series) unless noted.
Chain of UniProt Q9UGL1 (Q9UGL1 whole entry, looked up): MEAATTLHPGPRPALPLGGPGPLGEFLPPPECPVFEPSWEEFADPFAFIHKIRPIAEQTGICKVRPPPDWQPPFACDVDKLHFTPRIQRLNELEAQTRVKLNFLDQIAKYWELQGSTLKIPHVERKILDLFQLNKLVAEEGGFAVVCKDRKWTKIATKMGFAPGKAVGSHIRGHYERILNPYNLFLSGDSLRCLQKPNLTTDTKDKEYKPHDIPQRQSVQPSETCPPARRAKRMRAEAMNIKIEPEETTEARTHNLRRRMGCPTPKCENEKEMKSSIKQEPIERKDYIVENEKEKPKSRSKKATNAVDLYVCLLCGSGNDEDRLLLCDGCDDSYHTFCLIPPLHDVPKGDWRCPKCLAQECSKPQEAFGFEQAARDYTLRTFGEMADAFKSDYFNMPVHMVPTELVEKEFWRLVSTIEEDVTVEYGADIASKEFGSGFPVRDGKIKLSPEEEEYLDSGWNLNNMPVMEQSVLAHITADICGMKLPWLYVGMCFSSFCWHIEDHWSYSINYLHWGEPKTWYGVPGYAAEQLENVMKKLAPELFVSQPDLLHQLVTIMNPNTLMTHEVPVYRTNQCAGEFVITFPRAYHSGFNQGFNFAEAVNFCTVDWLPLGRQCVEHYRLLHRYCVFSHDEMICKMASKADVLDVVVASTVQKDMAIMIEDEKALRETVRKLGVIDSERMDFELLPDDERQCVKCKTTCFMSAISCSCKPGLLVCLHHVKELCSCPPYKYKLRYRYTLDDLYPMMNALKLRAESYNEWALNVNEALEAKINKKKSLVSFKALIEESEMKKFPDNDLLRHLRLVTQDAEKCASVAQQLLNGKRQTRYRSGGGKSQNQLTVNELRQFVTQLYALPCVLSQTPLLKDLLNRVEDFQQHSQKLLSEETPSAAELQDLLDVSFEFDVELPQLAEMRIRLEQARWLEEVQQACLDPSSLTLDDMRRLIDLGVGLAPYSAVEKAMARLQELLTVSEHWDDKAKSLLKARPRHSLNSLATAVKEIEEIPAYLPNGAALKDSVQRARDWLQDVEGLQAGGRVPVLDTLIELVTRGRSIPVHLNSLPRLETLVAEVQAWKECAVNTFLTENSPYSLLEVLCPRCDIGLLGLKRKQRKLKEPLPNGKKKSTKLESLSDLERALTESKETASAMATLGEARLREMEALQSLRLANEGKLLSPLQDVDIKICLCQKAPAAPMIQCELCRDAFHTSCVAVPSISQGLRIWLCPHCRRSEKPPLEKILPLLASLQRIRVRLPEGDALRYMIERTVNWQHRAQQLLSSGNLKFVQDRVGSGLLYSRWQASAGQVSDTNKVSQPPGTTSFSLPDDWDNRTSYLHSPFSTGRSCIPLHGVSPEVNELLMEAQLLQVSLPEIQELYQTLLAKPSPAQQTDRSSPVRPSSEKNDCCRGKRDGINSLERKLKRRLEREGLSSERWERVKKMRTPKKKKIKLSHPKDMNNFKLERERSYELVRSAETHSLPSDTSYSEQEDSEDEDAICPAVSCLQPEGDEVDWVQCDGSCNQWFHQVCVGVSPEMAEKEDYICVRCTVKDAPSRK
How it was run: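 qHTS format, multiple compound concentrations. Buffer 50 mM HEPES pH 7.5/0.01% Tween-20; 200 nM KDM5BΔAP final; 10 min compound preincubation; substrate-mix levels 12.5 µM peptide, 25 µM α-KG, 0.25 mM NAD⁺; 30 min RT; ΔRFU.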
Note: nearly all actives have a fitted effect of over 70% in size.
Potency is the fitted concentration of half-maximal effect; tags give direction and shape of the fitted curve.
Throughout, for activity change, negative = inhibition: 0% is about no effect.

Row | Structure (SMILES) | Potency | activity change, negative = inhibition
1 | COc1ccc(NC(=O)c2ccc(C3Nc4ccccc4S(=O)(=O)N3)cc2)cc1OC (centres undefined) | inconclusive: 20 µM [inhibitor, partial curve, poor fit] | –
2 | COc1ccc(C(=O)NC2CCN(c3cc(-c4ccc(F)cc4)[nH]n3)CC2)c(OC)c1 | inactive | –
3 | Cc1ccccc1-c1nc2cnccn2c1NCCC(=O)NC1CCCCC1 | active: 28.2 µM | –
4 | COc1ccc(-c2nc3scc(CCNS(=O)(=O)c4ccc(F)cc4C)n3n2)cc1 | inconclusive: 22.4 µM [inhibitor, partial curve, poor fit] | –
5 | COc1ccccc1-c1ccc(CN2CCCC(c3nc4ccc(F)cc4c(=O)[nH]3)C2)cc1 (centres undefined) | inconclusive: 50.1 µM [inhibitor, partial curve, poor fit] and inconclusive: 31.6 µM [inhibitor, partial curve] | –
6 | COC(=O)c1cc2oc3ccccc3c2n1Cc1ccc(Cl)cc1 | inconclusive: 35.5 µM [inhibitor, partial curve, poor fit] | –
7 | Cc1ccc(CN2Cc3[nH]cnc3C[C@H]2c2nc(-c3ccc4ccccc4c3)no2)cc1 | inconclusive: 35.5 µM [inhibitor, partial curve, poor fit] | –
8 | CNC(=O)NC(=O)COC(=O)c1ccc2c(=O)n3c(nc2c1)CCCCCC3 | inactive | –
9 | O=c1cc(CSc2nnnn2-c2ccccc2)c2ccc(O)cc2o1 | inconclusive: 3.98 µM [inhibitor, full curve, poor fit] | –
10 | O=C(NC1CCN(c2cc(-c3ccccc3)[nH]n2)C1)c1cc(F)ccc1Cl (centres undefined) | inconclusive: 7.94 µM [inhibitor, partial curve, poor fit] | –
11 | CCn1c2c(c(=O)n3ncc(C(=O)N4CCN(c5ccc(Cl)cc5)CC4)c13)CN(Cc1ccc(OC)cc1)CC2 | inconclusive: 25.1 µM [inhibitor, partial curve, poor fit] | –
12 | COCC(=O)N1CCC(Oc2nccnc2N(C)C)C1 (centres undefined) | inconclusive: 28.2 µM [inhibitor, partial curve, poor fit] | –
13 | CCCc1nn2c(=O)cc(COC(=O)c3ccc(NC(=O)COc4ccccc4)cc3)nc2s1 | – | inconclusive: -35.2% [inhibitor]
14 | CCN(CC)C(=O)CC[C@@H]1CNC(=O)[C@@H]2C[C@H](NC(=O)NC(C)C)CN12 | inconclusive: 35.5 µM [inhibitor, single point] | –
15 | O=C1CC2(C(=O)Nc3cc(F)ccc32)c2sc(C(=O)O)c(-c3ccccc3)c2N1 (centres undefined) | inactive | –
16 | COc1cccc(NC(=O)CN(C)Cc2cc(=O)oc3c(C)c(O)ccc23)c1 | inconclusive: 39.8 µM [inhibitor, single point] | –
17 | CC(C)C[C@@H]1N[C@H](C(=O)N2CCCC2)Cc2cn(Cc3nccn3C)c3cccc1c23 | inconclusive: 25.1 µM [inhibitor, single point] | –
18 | Cc1c(Cl)cccc1NC(=O)c1cc(=O)[nH]c2ccc(S(=O)(=O)N3CCOCC3)cc12 | inactive | –
19 | Cc1ccc(CNC(=O)c2nc(S(=O)(=O)Cc3ccccc3F)ncc2Cl)cc1 | inconclusive: 39.8 µM [inhibitor, partial curve, poor fit] | –
20 | COc1ccc(N2C(=O)c3ccccc3NC2c2ccc(OC)c(CN3CCOCC3)c2)cc1 (centres undefined) | inconclusive: 31.6 µM [inhibitor, partial curve, poor fit] | –

Row | Structure (SMILES) | Potency | activity change, negative = inhibition
21 | Cc1ccc(S(C)(=O)=O)cc1C(=O)Nc1ccccc1N1CCOCC1 | inactive | –
22 | COc1ccc(CNC(=O)CCc2c(C)c3cc4c(C)coc4c(C)c3oc2=O)cc1OC | – | inconclusive: -37.5% [inhibitor]
23 | CCc1ccc(Cn2c(CNS(=O)(=O)c3ccc(C)c(C)c3)nc3cccnc32)cc1 | inconclusive: 35.5 µM [inhibitor, single point] | –
24 | NC(=O)CN1CCN(c2nc3ccccc3nc2NS(=O)(=O)c2cccc(Cl)c2)CC1 | inconclusive: 35.5 µM [inhibitor, partial curve, poor fit] | –
25 | CC1(C)CC(=O)C2=C(C1)NC1=C(C(=O)c3ccccc31)C2c1ccc(C(F)(F)F)cc1 (centres undefined) | inconclusive: 10 µM [inhibitor, partial curve, poor fit] | –
26 | COc1ccc(-c2cc(C(=O)NCc3c(C)cc(C)[nH]c3=O)c3c(c2)N(C(C)C)CCO3)cc1OC | active: 35.5 µM | –
27 | CC(C)=NNC(N)=S | inactive | –
28 | Cc1ccc2nc(C(=O)N[C@H]3COC[C@H]3Cc3cc(C)no3)cn2c1 | inconclusive: 25.1 µM [inhibitor, partial curve, poor fit] | –
29 | Fc1ccc(-c2cnc([C@@H]3COCCN3Cc3ccccc3F)[nH]2)c(F)c1 | inactive | –
30 | N#Cc1cccnc1SCc1cccc(C(F)(F)F)c1 | inconclusive: 39.8 µM [inhibitor, single point] | –
31 | CCCC(C)C(=O)NCc1ccccn1 (centres undefined) | inactive | –
32 | CC(C)c1ccc(NC(=O)CNCC(c2ccccc2)N(C)C)cc1 (centres undefined) | inconclusive: 14.1 µM [inhibitor, partial curve, poor fit] | –
33 | COc1ccc(C(=O)N[C@H]2[C@H](O)[C@H](O)C[C@@H]2c2cccnc2)cc1 | inactive | –
34 | CN1CCCC2(C1)CN(C)c1ccc(C(=O)NCCOc3ccccc3)cc12 (centres undefined) | active: 39.8 µM | –
35 | COCc1cc(CC2(NCc3ccc(N(C)C)cc3)COC2)no1 | inconclusive: 56.2 µM [inhibitor, single point] | –
36 | Cc1cccc(C)c1NC(=O)Cc1c(C)nc2nc(-c3cccs3)nn2c1C | inconclusive: 2 µM [inhibitor, full curve, poor fit] | –
37 | Cc1ccc(C)c(N(CC(=O)NC2CCCCC2)C(=O)c2snc(C(N)=O)c2N)c1 | inconclusive: 20 µM [inhibitor, partial curve, poor fit] | –
38 | CCN1c2cc(C(=O)Nc3ccc(N(C)C)cc3)ccc2C(=O)N2CCCCCC21 (centres undefined) | inconclusive: 28.2 µM [inhibitor, partial curve, poor fit] | –
39 | Cc1cc(C)c2sc(N3CCN(C(=O)c4ccc(N(C)C)cc4)CC3)nc2c1 | inconclusive: 15.8 µM [inhibitor, partial curve, poor fit] | –

Reference: PubChem BioAssay AID1347165 (National Center for Advancing Translational Sciences (NCATS), 2019)
